Measurements from article PMC6919601, “Identification of Plasmodium dipeptidyl aminopeptidase allosteric inhibitors by high throughput screening” (PLoS ONE, 2019).
The whole screen tested about 110,000 compounds, of which about 230 (0.21%) showed an effect of 50% or more. Some of the results follow.

Molecular target: DPAP1 (Plasmodium falciparum, UniProt Q8IIJ9)
Test: primary screen, percent inhibition; read by cleavage of a fluorogenic dipeptide substrate; higher = more effect of the substance
Parameters: species or system P. falciparum D10 trophozoite lysates; single well
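Note: 30 min substrate incubation versus DMSO and 10 µM JCP410 controls.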

Chain of DPAP1 (Q8IIJ9 whole entry, looked up): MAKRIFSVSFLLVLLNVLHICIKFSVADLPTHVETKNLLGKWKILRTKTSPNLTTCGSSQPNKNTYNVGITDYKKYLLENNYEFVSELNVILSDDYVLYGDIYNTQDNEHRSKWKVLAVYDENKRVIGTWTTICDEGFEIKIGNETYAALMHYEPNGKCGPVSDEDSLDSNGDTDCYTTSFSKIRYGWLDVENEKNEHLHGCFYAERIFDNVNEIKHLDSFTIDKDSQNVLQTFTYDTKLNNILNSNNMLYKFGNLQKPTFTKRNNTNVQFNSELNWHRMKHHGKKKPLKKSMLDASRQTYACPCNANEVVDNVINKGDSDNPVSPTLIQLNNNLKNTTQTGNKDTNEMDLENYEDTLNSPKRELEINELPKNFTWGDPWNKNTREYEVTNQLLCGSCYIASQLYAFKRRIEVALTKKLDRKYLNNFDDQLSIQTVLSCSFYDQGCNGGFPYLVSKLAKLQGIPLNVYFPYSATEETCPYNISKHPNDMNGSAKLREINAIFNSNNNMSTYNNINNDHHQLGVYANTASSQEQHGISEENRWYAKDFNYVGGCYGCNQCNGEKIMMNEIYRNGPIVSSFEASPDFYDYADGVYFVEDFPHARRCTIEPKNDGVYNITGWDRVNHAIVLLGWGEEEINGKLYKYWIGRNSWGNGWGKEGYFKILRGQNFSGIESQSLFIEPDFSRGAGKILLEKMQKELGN

Structure (SMILES)	% Inhibition @ 10 uM [%]
O=C(Cc1nc(N2CCOCC2)nc(N2CCOCC2)n1)c1ccccc1	2.17
CN(CCCNC(=O)c1csc2c1CCCC2)C1CCCCC1	-5.05
O=C(COc1ccc(Cl)cc1)N1CCN(C/C=C/c2ccccc2)CC1	2.03
CC(=O)NC1(NC(C)=O)CCN(C)CC1	-1.86
C=CCN1C(=O)C2(NC(CC)C3C(=O)N(c4ccc(Br)cc4)C(=O)C32)c2ccccc21 (stereo not shown)	8.13
Cc1ccc(C)c(NC(=O)c2ccc(Br)o2)c1	2.06
CCOc1ccc(-c2[nH]nc3c2C(c2cccs2)C(C#N)=C(N)O3)c(OCC)c1 (stereo not shown)	-4.41
CCOCCCNC(=O)C(c1ccc(Cl)cc1)N1CCC2(CC1)OCCO2 (stereo not shown)	-1.2
O=C1c2ccccc2C(=O)N1CCc1n[nH]c(CCN2C(=O)c3ccccc3C2=O)n1	-5.35
COc1ccc(C2(C(=O)Nc3ccc(C(=O)NCCc4ccccc4)cc3)CCOCC2)cc1	0.931
CCOc1ccc(S(=O)(=O)N(CC(=O)NC2CCCC2)c2ccccc2)cc1	0.54
Clc1ccc(OCC2COCCO2)cc1 (stereo not shown)	4.61
O=C(CCn1c(=O)c2sccc2n(CC(=O)c2ccccc2)c1=O)NCCc1ccc(Cl)cc1	11.4
CN(C)c1ccc2c(c1)OC(N)=C(C#N)C2c1ccoc1 (stereo not shown)	-3.42
COc1oncc1NC(=O)[C@H](CC1CCCCC1)NC(=O)c1ccccc1	-5.21
Cc1ccc(S(=O)(=O)ON2C(=O)c3ccccc3C2=O)cc1	1.16
O=C(NCCCN1CCOCC1)c1nnc(Cc2ccc(F)cc2)o1	-3.8
FC(F)(F)c1ccc(-c2noc(-c3ccc(Br)o3)n2)cc1	2.62
COc1ccccc1OCCCN1CCCCC1	-4.3
COc1ccc(Br)cc1CNC(=O)C(C)n1c(=O)c2cccn2c2cccnc21 (stereo not shown)	2.33
O=C(CCc1ccccc1)NCCCN1CCOCC1	2.56
C=CCOc1ccc(/C=C2\SC(N3CCCCCC3)=NC2=O)cc1	2.03

Structure (SMILES)	% Inhibition @ 10 uM [%]
CC1=C(C#Cc2ccccc2)c2ccccc2OC1(c1ccccc1)N1CCCCC1 (stereo not shown)	-7.11
Cc1cc(=O)oc(C)c1C(=O)NCCC1=CCCCC1	-4.06
CCOc1cc(C2NC(C(=O)O)CS2)cc(Br)c1OCc1ccccc1C (stereo not shown)	1.19
CCC1(c2ccccc2)C(=O)N(Cc2ccccc2)C(=O)N(Cc2ccccc2)C1=O	-6.83
CC1=C(C(=O)Nc2cccnc2)C(c2ccccc2Cl)n2nc(SCc3ccccc3)nc2N1 (stereo not shown)	1.26
CCOC(=O)N1CCN(C(=O)c2cccc(OC(F)(F)C(F)F)c2)CC1	3.86
N#CC1=C2SCN(Cc3ccco3)CN2C(=O)CC1c1cccc2ccccc12 (stereo not shown)	45.5
CCOC(=O)NC12CC3CC(CC(C3)C1)C2	-2.41
CCOc1cc(C2NCCc3cc(OCC)c(OCC)cc32)ccc1O (stereo not shown)	4.05
Cc1ccc(-c2cc(NC(=O)COc3ccc(C(C)C)cc3)on2)cc1	-1.47
COC(=O)C1=CN(Cc2cccs2)C=C(C(=O)OC)C1c1ccc(C)s1	-8.86
O=C(O)[C@H]1CCCC[C@H]1C(=O)Nc1ccc(S(=O)(=O)N2CCOCC2)cc1	-0.68
COc1ccc(/C=C(\C#N)c2nc(-c3ccc(C)cc3)cs2)cc1	-6.11
COc1ccc2c(c1)-c1nc(NC(C)=O)sc1CC2	-2.17
CCO/C(O)=C1\C(C)=NC2=C(C(=O)CCC2)C1c1ccccc1Cl (stereo not shown)	-2.87
COc1ccc(C2CC(c3ccc(C)cc3)Nc3nnnn32)c(OC)c1OC (stereo not shown)	-5.19
O=C(O)C1Cc2c([nH]c3ccccc23)C(c2cccc([N+](=O)[O-])c2)N1 (stereo not shown)	-2.72
CC12CCCCC1CCC1C2CCC2(C)C(NCC(O)COc3ccccc3)CCC12 (stereo not shown)	0.219
NS(=O)(=O)c1ccc(CCNC(=O)CSc2nc3ccsc3c(=O)n2CC(=O)O)cc1	4.63
CNc1ccc(Br)cc1-c1nc2ccccc2nc1O	-0.693
Cc1nn(C)cc1CNC(=O)c1cc2nc(-c3ccc4c(c3)OCO4)cc(C(F)(F)F)n2n1	0.812
Cc1cc(O)c(NC(=O)c2cccc(Cl)c2)cc1C	1.57

Structure (SMILES)	% Inhibition @ 10 uM [%]
C=CCSc1nc2c(cc1C#N)CCCC2	3.1
Cc1ccc(-c2nc(C(=O)N3CCN(C(=O)c4ccco4)CC3)c3n2CCCCC3)cc1	-4.99
Cc1nn(CC(=O)N2CCC(C)CC2)c(=O)c2cc3cc(F)ccc3n12	1.68
CC(=O)N1CCC2(CC1)OC(=O)C(C)=C2C(=O)N1CCN(c2ncccn2)CC1	3.62
O=C(Nc1ccc2c(c1)OCCO2)c1cccc(OC(F)(F)C(F)F)c1	-1.79
O=C(Nc1nc(-c2ccc(Cl)cc2)cs1)C1CC1	-6.25
Cn1c(-c2ccccc2)cnc1SCC(=O)NCc1ccco1	1.37
CC(C)Oc1ccc(C(=O)Nc2c3c(nn2-c2ccc(F)cc2)CS(=O)(=O)C3)cc1	-0.657
CNc1nnc(-c2cc3ccccc3oc2=O)s1	-3.83
COc1cccc(-c2ccc3c(n2)sc2c(=O)[nH]c(=O)[nH]c23)c1	-0.0555
CC1CC(C)CN(C2CCN(CCc3ccccc3)CC2)C1 (stereo not shown)	-0.414
C=CCOc1ccc(CNc2ccc3[nH]c(O)nc3c2)cc1	-3.23
COc1cc2cc(-c3ccc(OC)c(OC)c3C)nc(N)c2cc1OC	-5.67
CCCN1C(=O)c2ccccc2NC1c1cc(OC)c(OC)c(OC)c1 (stereo not shown)	-0.478
COc1ccc(CN2CCN(Cc3ccc(F)cc3)CC2)cc1	-5.23
COc1cccc(NC(=O)c2ccc(C)c(Br)c2)c1	-2.19
CCNC(=O)c1c(NC(=O)COc2ccc(Br)cc2)sc2c1CCCC2	-5.11
CCn1c(-c2ccco2)nc2ccccc21	-0.764
CCOc1ccc(CCNC(=O)C(C)n2sc3ccccc3c2=O)cc1 (stereo not shown)	-3.93
CC(=O)N1CCC(N2CCC(Cc3ccccc3)CC2)CC1	-3.57
